# According to the supplement of paper PMC8728848:
# The other results are listed elsewhere or left out.
# B1: Pwp2 (Candida glabrata) (protein)
# chain: MGSSHHHHHHSSGLVPRGSHMASKNPVELNNVCTFPNDYGRIPGFTVLVGRLGLLISASDYKELLRYPGAFLIATQDTMTTSPNFELTGFPFFTGLYGLTVFPLDLLVELRGYFVPPNSGQYTFTLSDSDDAAIIFLGNPSAFPCGDLQNWPKPSEEDITVTDHLFPSRTLYLIEGVAYPMRIAYYNGIGAGRLNAAFIDPSGTRHTNWEGYIWQYDPCSTCTYS
# Columns and labels:
# Test in all cases: glycan array binding signal (z-score within array); higher = stronger binding
# Settings in all cases: glycan notation: IUPAC condensed, linker removed
# Gal(b1-2)Gal = molecular target: Gal(b1-2)Gal
# How it was run: (§1)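 Arrays were curated from the Consortium for Functional Glycomics database, 3228 in total, and kept only where the protein sequence was available. Binding is expressed as a within-array Z-score. This score was averaged across arrays of the same protein sequence at different concentrations or buffers and across linkers, and negative values can be read as non-binding.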
# Gal(b1-3)Gal = molecular target: Gal(b1-3)Gal
# How it was run: as §1
# Gal(b1-3)Gal(b1-4)GlcNAc = molecular target: Gal(b1-3)Gal(b1-4)GlcNAc
# How it was run: as §1
# Gal(b1-3)GalNAc = molecular target: Gal(b1-3)GalNAc
# How it was run: as §1
# [1] = molecular target: Gal(b1-3)GalNAc(a1-3)[Fuc(a1-2)]Gal(b1-4)Glc
# How it was run: as §1
# [2] = molecular target: Gal(b1-3)GalNAc(a1-3)[Fuc(a1-2)]Gal(b1-4)GlcNAc
# How it was run: as §1
# Gal(b1-3)GalNAc(b1-3)Gal = molecular target: Gal(b1-3)GalNAc(b1-3)Gal
# How it was run: as §1
# [3] = molecular target: Gal(b1-3)GalNAc(b1-3)Gal(a1-4)Gal(b1-4)Glc
# How it was run: as §1
# [4] = molecular target: Gal(b1-3)GalNAc(b1-4)Gal(b1-4)Glc
# How it was run: as §1
# [5] = molecular target: Gal(b1-3)GalNAc(b1-4)[Neu5Ac(a2-3)]Gal(b1-4)Glc
# How it was run: as §1
# Gal(b1-3)GlcNAc = molecular target: Gal(b1-3)GlcNAc
# How it was run: as §1
# [6] = molecular target: Gal(b1-3)GlcNAc(a1-3)Gal(b1-4)GlcNAc
# How it was run: as §1
# [7] = molecular target: Gal(b1-3)GlcNAc(a1-6)Gal(b1-4)GlcNAc
# How it was run: as §1
# Gal(b1-3)GlcNAc(b1-2)Man = molecular target: Gal(b1-3)GlcNAc(b1-2)Man
# How it was run: as §1
# [8] = molecular target: Gal(b1-3)GlcNAc(b1-2)Man(a1-3)[Gal(b1-3)GlcNAc(b1-2)Man(a1-6)]Man(b1-4)GlcNAc(b1-4)GlcNAc
# How it was run: as §1
# [9] = molecular target: Gal(b1-3)GlcNAc(b1-2)Man(a1-3)[Gal(b1-3)GlcNAc(b1-2)Man(a1-6)]Man(b1-4)GlcNAc(b1-4)[Fuc(a1-6)]GlcNAc
# How it was run: as §1
# [10] = molecular target: Gal(b1-3)GlcNAc(b1-2)Man(a1-3)[GlcNAc(b1-4)][Gal(b1-3)GlcNAc(b1-2)Man(a1-6)]Man(b1-4)GlcNAc(b1-4)GlcNAc
# How it was run: as §1
# [11] = molecular target: Gal(b1-3)GlcNAc(b1-2)[Gal(b1-3)GlcNAc(b1-6)]Man(a1-6)[Gal(b1-3)GlcNAc(b1-2)Man(a1-3)]Man(b1-4)GlcNAc(b1-4)GlcNAc
# How it was run: as §1
# [12] = molecular target: Gal(b1-3)GlcNAc(b1-3)Gal(b1-3)GlcNAc
# How it was run: as §1
# [13] = molecular target: Gal(b1-3)GlcNAc(b1-3)Gal(b1-4)Glc
# How it was run: as §1
# [14] = molecular target: Gal(b1-3)GlcNAc(b1-3)Gal(b1-4)GlcNAc
# How it was run: as §1
# [15] = molecular target: Gal(b1-3)GlcNAc(b1-3)Gal(b1-4)GlcNAc(b1-2)Man(a1-3)[Gal(b1-3)GlcNAc(b1-3)Gal(b1-4)GlcNAc(b1-2)Man(a1-6)]Man(b1-4)GlcNAc(b1-4)GlcNAc
# How it was run: as §1
# [16] = molecular target: Gal(b1-3)GlcNAc(b1-3)Gal(b1-4)GlcNAc(b1-2)[Gal(b1-3)GlcNAc(b1-3)Gal(b1-4)GlcNAc(b1-6)]Man(a1-6)[Gal(b1-3)GlcNAc(b1-3)Gal(b1-4)GlcNAc(b1-2)Man(a1-3)]Man(b1-4)GlcNAc(b1-4)[Fuc(a1-6)]GlcNAc
# How it was run: as §1
# [17] = molecular target: Gal(b1-3)GlcNAc(b1-3)Gal(b1-4)GlcNAc(b1-3)Gal(b1-4)GlcNAc(b1-2)[Gal(b1-3)GlcNAc(b1-3)Gal(b1-4)GlcNAc(b1-3)Gal(b1-4)GlcNAc(b1-6)]Man(a1-6)[Gal(b1-3)GlcNAc(b1-3)Gal(b1-4)GlcNAc(b1-3)Gal(b1-4)GlcNAc(b1-2)Man(a1-3)]Man(b1-4)GlcNAc(b1-4)[Fuc(a1-6)]GlcNAc
# How it was run: as §1
# [18] = molecular target: Gal(b1-3)GlcNAc(b1-3)Gal(b1-4)GlcNAc(b1-6)[Gal(b1-3)GlcNAc(b1-3)]Gal(b1-4)Glc
# How it was run: as §1
# [19] = molecular target: Gal(b1-3)GlcNAc(b1-3)Gal(b1-4)[Fuc(a1-3)]GlcNAc
# How it was run: as §1
# [20] = molecular target: Gal(b1-3)GlcNAc(b1-3)Gal(b1-4)[Fuc(a1-3)]GlcNAc(b1-6)[Gal(b1-3)GlcNAc(b1-3)]Gal(b1-4)Glc
# How it was run: as §1
# [21] = molecular target: Gal(b1-3)GlcNAc(b1-3)GalNAc
# How it was run: as §1
# [22] = molecular target: Gal(b1-3)GlcNAc(b1-6)Gal(b1-4)GlcNAc
# How it was run: as §1
# [23] = molecular target: Gal(b1-3)GlcNAc(b1-6)GalNAc
# How it was run: as §1
# [24] = molecular target: Gal(b1-3)GlcNAc(b1-6)[Gal(b1-3)]GalNAc
# How it was run: as §1
# Gal(b1-3)GlcNAc6S = molecular target: Gal(b1-3)GlcNAc6S
# How it was run: as §1
# [25] = molecular target: Gal(b1-3)[Fuc(a1-4)]GlcNAc
# How it was run: as §1
# [26] = molecular target: Gal(b1-3)[Fuc(a1-4)]GlcNAc(b1-2)Man
# How it was run: as §1
# [27] = molecular target: Gal(b1-3)[Fuc(a1-4)]GlcNAc(b1-2)Man(a1-3)[Gal(b1-3)[Fuc(a1-4)]GlcNAc(b1-2)Man(a1-6)]Man(b1-4)GlcNAc(b1-4)[Fuc(a1-6)]GlcNAc
# How it was run: as §1
# [28] = molecular target: Gal(b1-3)[Fuc(a1-4)]GlcNAc(b1-3)Gal(b1-3)[Fuc(a1-4)]GlcNAc
# How it was run: as §1
# [29] = molecular target: Gal(b1-3)[Fuc(a1-4)]GlcNAc(b1-3)Gal(b1-4)[Fuc(a1-3)]GlcNAc
# How it was run: as §1
# [30] = molecular target: Gal(b1-3)[Fuc(a1-4)]GlcNAc(b1-6)GalNAc
# How it was run: as §1
# [31] = molecular target: Gal(b1-3)[GlcNAc(b1-6)]GalNAc
# How it was run: as §1
# [32] = molecular target: Gal(b1-3)[Neu5Ac(a2-6)]GalNAc
# How it was run: as §1
# [33] = molecular target: Gal(b1-3)[Neu5Ac(a2-6)]GlcNAc(b1-4)Gal(b1-4)Glc
# How it was run: as §1
# [34] = molecular target: Gal(b1-3)[Neu5Ac(b2-6)]GalNAc
# How it was run: as §1
# Gal(b1-4)Gal = molecular target: Gal(b1-4)Gal
# How it was run: as §1
# [35] = molecular target: Gal(b1-4)GalNAc(a1-3)[Fuc(a1-2)]Gal(b1-4)GlcNAc
# How it was run: as §1
# [36] = molecular target: Gal(b1-4)GalNAc(b1-3)[Fuc(a1-2)]Gal(b1-4)GlcNAc
# How it was run: as §1
binder,measurement,setting,value
B1,glycan array binding signal (z-score),Gal(b1-2)Gal,-0.438
same,glycan array binding signal (z-score),Gal(b1-3)Gal,-0.327
same,glycan array binding signal (z-score),Gal(b1-3)Gal(b1-4)GlcNAc,-1.08
same,glycan array binding signal (z-score),Gal(b1-3)GalNAc,-0.544
same,glycan array binding signal (z-score),[1],0.087
same,glycan array binding signal (z-score),[2],-0.583
same,glycan array binding signal (z-score),Gal(b1-3)GalNAc(b1-3)Gal,-0.339
same,glycan array binding signal (z-score),[3],-0.332
same,glycan array binding signal (z-score),[4],-0.352
same,glycan array binding signal (z-score),[5],-0.401
same,glycan array binding signal (z-score),Gal(b1-3)GlcNAc,-0.338
same,glycan array binding signal (z-score),[6],0.16
same,glycan array binding signal (z-score),[7],-0.506
same,glycan array binding signal (z-score),Gal(b1-3)GlcNAc(b1-2)Man,-0.2
same,glycan array binding signal (z-score),[8],-0.223
same,glycan array binding signal (z-score),[9],3.56
same,glycan array binding signal (z-score),[10],-0.217
same,glycan array binding signal (z-score),[11],-0.285
same,glycan array binding signal (z-score),[12],-0.554
same,glycan array binding signal (z-score),[13],-0.117
same,glycan array binding signal (z-score),[14],-0.3
same,glycan array binding signal (z-score),[15],-0.283
same,glycan array binding signal (z-score),[16],0.209
same,glycan array binding signal (z-score),[17],1.07
same,glycan array binding signal (z-score),[18],-0.399
same,glycan array binding signal (z-score),[19],-0.462
same,glycan array binding signal (z-score),[20],-0.639
same,glycan array binding signal (z-score),[21],-0.542
same,glycan array binding signal (z-score),[22],-0.526
same,glycan array binding signal (z-score),[23],0.159
same,glycan array binding signal (z-score),[24],-0.444
same,glycan array binding signal (z-score),Gal(b1-3)GlcNAc6S,-0.087
same,glycan array binding signal (z-score),[25],1.68
same,glycan array binding signal (z-score),[26],-0.524
same,glycan array binding signal (z-score),[27],0.329
same,glycan array binding signal (z-score),[28],0.792
same,glycan array binding signal (z-score),[29],-0.082
same,glycan array binding signal (z-score),[30],0.385
same,glycan array binding signal (z-score),[31],-0.842
same,glycan array binding signal (z-score),[32],-0.199
same,glycan array binding signal (z-score),[33],-0.428
same,glycan array binding signal (z-score),[34],-0.405
same,glycan array binding signal (z-score),Gal(b1-4)Gal,-0.485
same,glycan array binding signal (z-score),[35],-0.362
same,glycan array binding signal (z-score),[36],-0.465
